This is an account of results in PubChem BioAssay AID1346428 (National Center for Advancing Translational Sciences (NCATS), 2018).

The structures appear in SMILES notation. Hit rate of the full screen: of about 48,000 compounds, about 1,200 (2.5%) were called active. Inconclusive results (about 2%) are left out.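 The calls were made as follows: active = activation of at least 60% and not above a set upper limit (about 1 call in 100 departs from these limits); inconclusive = activation of 40% to 60%, or above that upper limit; inactive = activation under 40%.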 The list shows a part of the results.

Chain of UniProt O75388 (O75388 whole entry, looked up, the tested form may be a part): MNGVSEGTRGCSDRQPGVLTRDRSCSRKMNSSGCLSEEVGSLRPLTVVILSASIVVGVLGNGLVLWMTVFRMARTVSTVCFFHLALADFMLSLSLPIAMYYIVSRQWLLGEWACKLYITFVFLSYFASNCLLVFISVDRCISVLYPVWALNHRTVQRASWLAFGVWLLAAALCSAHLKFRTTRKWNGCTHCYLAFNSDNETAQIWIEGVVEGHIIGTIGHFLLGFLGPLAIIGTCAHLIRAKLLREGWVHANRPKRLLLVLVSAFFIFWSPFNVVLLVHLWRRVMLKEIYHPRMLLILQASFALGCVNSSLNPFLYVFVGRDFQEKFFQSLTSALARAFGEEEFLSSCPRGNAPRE

This test deals with Probable G-protein coupled receptor 32 (Homo sapiens) (UniProt O75388). Kind of test: qHTS for Agonists of Human Resolvin D1 Receptor DRV1. Also: 0% is about no effect. As to conditions: CHO-K1 GPR32 beta-arrestin PathHunter luminescence, 90 min; at 76.9 µM; active compounds read high; zero percent set by DMSO-only wells. The essentials:
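GPR32 activation in stably transfected CHO-K1 cells, detected as beta-arrestin recruitment by enzyme-fragment complementation. Compound exposure: 90 min, 37 °C.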
Consider `Cc1cc(C)cc(NS(=O)(=O)c2ccc3[nH]cc(C(=O)N4CCCCC4)c(=O)c3c2)c1`, for which the activation is inactive: -10.1%.

On to `CCC(=O)N1CCc2cc(CNS(=O)(=O)c3ccccc3F)ccc21`, for which the activation is inactive: 0.391%.

Regarding `COc1cc(C(=O)Nc2sc3c(c2C#N)CCCC3)c(Br)c(OC)c1OC`, the activation was inactive: 7.76%.

With `Cc1ccc(NC(=O)CCc2nc(-c3ccccc3F)no2)c(C)c1`, the activation was inactive: -26.2%.

Regarding `CCOc1cc2c(cc1OCC)C(CC(=O)OC)N(C(=O)Nc1cc(C)cc(C)c1)CC2` (centres undefined), the activation was inactive: -8.69%.

In the case of `COc1cccc(CNC(=O)C(Cc2ccccc2)NS(=O)(=O)c2ccc3c(c2)CCN3C(C)=O)c1` (centres undefined), the activation was inactive: 26.8%.

As to `CCOc1ccccc1CNC(=O)c1ccc2c(c1)N(CC)CCS2`, the activation is inactive: -29.2%.

Turning to `Cc1ccc(-n2nc(C(=O)NC(C)C)c(=O)n(C)c2=O)cc1`, the activation was inactive: 3.13%.

In the case of `CS(=O)(=O)c1ncc(Cl)c(C(=O)N(Cc2ccc(Cl)cc2)Cc2ccco2)n1`, the activation was inactive: -22.2%.

Consider `Cc1cccc(OCC(=O)Nc2nnc(S(=O)(=O)N3CCCCCC3)s2)c1`, for which the activation is inactive: 24.9%.

For `CCCCCCCCCCCCCCCC[N+](C)(C)CC`, the activation was inactive: -6.81%.

On to `Cc1cc(Cl)ccc1NC(=O)C1CCCN1S(=O)(=O)c1ccc2c(c1)CCCC(=O)N2` (centres undefined), for which the activation was inactive: 14%.

For the compound `Cc1ccc(-c2noc(-c3ccc(NC4CCCC4)c([N+](=O)[O-])c3)n2)cc1`, the activation was inactive: -15.9%.

Take `Cc1cc(-n2c(SCc3ccccc3F)nc3[nH]ncc3c2=O)ccc1Cl`: the activation was inactive: -24.7%.

`CCc1c(C)sc2c1CCN(C(=O)Nc1ccccc1Cl)C2c1ccc(OC)cc1` (centres undefined): the activation is inactive: 23%.

In the case of `CC(C)(C)OC(=O)N1CCC(c2nnc(SCc3ccccc3Cl)o2)CC1`, the activation is inactive: -3.94%.

`COc1ccc(Cl)cc1NC(=O)C(C)n1c(=O)cc(C(F)(F)F)c2c(C)nn(C)c21` (centres undefined): the activation was inactive: -7.78%.

Consider `CS(=O)(=O)c1ncc(N(Cc2ccco2)Cc2cccs2)c(C(=O)Nc2ccccc2F)n1`, for which the activation is inactive: -26.1%.

Regarding `Cc1ccc(Cn2ccn(Cc3ccc(C)cc3)c(=O)c2=O)cc1`, the activation was inactive: -13.8%.

As for `CC1CCc2onc(C(=O)N3CCN(c4ccc(Cl)cc4)CC3)c2C1` (centres undefined), the activation is inactive: -17.8%.

Regarding `CCOc1ccc(CNC(=O)CCCn2nc(C)c3c(C)n(-c4ccc(C)cc4)nc3c2=O)cc1`, the activation is inactive: -14.4%.

On to `CCOC(=O)OC(C)OC(=O)[C@@H]1N2C(=O)[C@@H](NC(=O)[C@H](N)c3ccccc3)[C@H]2SC1(C)C` (some centres undefined), for which the activation is inactive: 26%.

As to `COc1ccc(N2C(=O)NC(NS(=O)(=O)c3ccc(NC(C)=O)cc3)(C(F)(F)F)C2=O)cc1` (centres undefined), the activation was inactive: -10.4%.

Take `Cc1ccc(C(=O)N2CC(=O)Nc3ccc(Br)cc3C2c2ccc(F)cc2)cc1C` (centres undefined): the activation is inactive: -30.3%.

As to `CCOC(=O)c1cc2c(=O)n3ccccc3nc2n(CC(C)C)c1=NC(=O)C(C)(C)Oc1ccc(Cl)cc1`, the activation was inactive: -22%.

`CCc1ccc(NC(=O)Cn2cnc3nc4c(cc3c2=O)CCCC4)cc1`: the activation is inactive: -1.68%.

Take `Cc1ccc(C)c(N2CCN(C(=O)CCc3c(C)nc4c(c3C)c(=O)n(C)c(=O)n4C)CC2)c1`: the activation is inactive: 29%.

Consider `CCN1CCN(C(=O)Cn2c(-c3cccs3)cc3cc(Cl)ccc32)CC1`, for which the activation was inactive: -6.25%.

Regarding `COc1ccc(CNC(=O)Cc2c(C)c3c(O)cc(C)cc3oc2=O)cc1`, the activation was inactive: 2.28%.

Take `CCc1ccc(-n2c3nc(=O)[nH]c(=O)c-3cc3c(C)nn(-c4ccccc4)c32)cc1`: the activation was inactive: -0.14%.

`COc1ccc(C(CNC(=O)c2oc3ccccc3c2C)N2CCCCC2)cc1` (centres undefined): the activation is inactive: -27%.

Consider `COc1ccccc1CNC(=O)C1CCN(c2ncnc3c2nc2n3CCCCC2)CC1`, for which the activation is inactive: 17%.

With `CC(C)CCNC(=O)c1c[nH]c2ccc(S(=O)(=O)Nc3cccc(C(F)(F)F)c3)cc2c1=O`, the activation is inactive: -1.64%.

Turning to `O=C(c1ccco1)N(Cc1cccnc1)c1nc2ccc(F)cc2s1`, the activation is inactive: -22%.

`Cc1cc(C)cc(NC(=O)C2CCCN(c3nnc(C)c4c(C)n(-c5ccccc5)nc34)C2)c1` (centres undefined): the activation was inactive: 12.4%.

As for `CCOC(=O)Cn1c(=O)oc2cc(S(=O)(=O)N3CCN(c4ccc(Cl)cc4)CC3)ccc21`, the activation is inactive: -2.06%.

Turning to `CCc1ccc(C2C(C(=O)Nc3ccccc3)=C(C)Nc3c(C(=O)Nc4ccc(C)cc4)cnn32)cc1` (centres undefined), the activation was inactive: -12.3%.

For `Cc1ccc(S(=O)(=O)NCC(c2ccc(N(C)C)cc2)N2CCCC2)cc1` (centres undefined), the activation is inactive: -23.2%.

`COc1cc(OC)cc(-c2nc3n(n2)C(c2ccccc2F)C(C(=O)Nc2cccnc2)=C(C)N3)c1` (centres undefined): the activation was inactive: -9.34%.

As to `CCc1ccc(S(=O)(=O)c2cn(C)c3cc(N4CCCCC4C)c(F)cc3c2=O)cc1` (centres undefined), the activation is inactive: -8.81%.

Take `COc1ccc(OCC(=O)Nc2nnc(S(=O)(=O)N3CCCCCC3)s2)cc1`: the activation was inactive: 35.4%.

For the compound `CCc1c(C)c2ccc3c(c2oc1=O)CN(Cc1ccccc1)CO3`, the activation was inactive: 48%.

Consider `O=C(CSc1nccn1Cc1ccco1)Nc1cccc(F)c1`, for which the activation was inactive: -4.09%.

For `O=C(Nc1ccc(C(F)(F)F)cc1)C1CCC(CNS(=O)(=O)c2cccc3nsnc23)CC1` (centres undefined), the activation was active: 114%.

As to `CCOC(=O)C1CCN(C(c2ccccc2)c2c(O)cc(C)n(Cc3ccco3)c2=O)CC1` (centres undefined), the activation is inactive: -18.8%.

Turning to `Cc1ccc(-n2c(CCC(=O)O)ccc2-c2cccs2)cc1C`, the activation is inactive: -23.5%.

With `COc1cc(C2CC(=O)Nc3c2c(=O)[nH]c2nc4ccccc4n32)ccc1O` (centres undefined), the activation was inactive: -5.84%.

In the case of `CCC(C)NC(=O)c1cc2c(Cl)nc3ccc(C)cc3c2s1` (centres undefined), the activation is inactive: -1.67%.

Consider `CC1(C)C(=O)N(CC(=O)Nc2ccc(Cl)cc2)c2ccccc21`, for which the activation was inactive: 8.81%.

With `Oc1ccccc1O`, the activation was inactive: 2.25%.

In the case of `Cc1ccc2c(c1)cc(C(=O)Nc1ccccc1C)n2C`, the activation is inactive: -2.57%.

Take `COc1ccc(-c2nn3c(-c4ccc(OC)cc4)nnc3c3ccccc23)cc1`: the activation was inactive: -1.01%.

With `CCc1nn2c(=O)cc(COC(=O)c3ccccc3NC(=O)COc3ccccc3C)nc2s1`, the activation is inactive: -6.75%.

For the compound `COc1cccc(OC(=O)CSc2nnc(-c3ccccc3OC)o2)c1`, the activation was inactive: -1.97%.
